Source: patent publication US20250276979A1, “SARS-COV2 MAIN PROTEASE INHIBITORS” (Gilead Sciences, Inc., priority 2024, published 2025)

Target: recombinant SARS-CoV-2 Main protease (Mpro) (Severe acute respiratory syndrome coronavirus 2, UniProt P0DTD1)
Test: Cov Mpro Biochemical IC50 Assay
Conditions: 7.5 nM Mpro, fluorogenic peptide substrate 40 μM, 20 min pre-incubation

SMILES | IC50
O=C1CC(n2c(=O)[nH]c3cc(-c4c(Cl)cccc4-c4ccc5c(c4)OC(F)(F)O5)sc3c2=O)CCN1 (stereo not drawn) [Example 13, 6-(2-chloro-6-(2,2-difluorobenzo[d][1,3]dioxol-5-yl)phenyl)-3-(2-oxopiperidin-4-yl)thieno[3,2-d]pyrimidine-2,4(1H,3H)-dione] | 408 nM
COc1cc(-c2cc3c(s2)c(=O)n([C@@H]2CCCNC(=O)C2)c(=O)n3CCNC(C)=O)c(Cl)cc1F [Example 37, (R)—N-(2-(6-(2-chloro-4-fluoro-5-methoxyphenyl)-2,4-dioxo-3-(2-oxoazepan-4-yl)-3,4-dihydrothieno[3,2-d]pyrimidin-1(2H)-yl)ethyl)acetamide] | 27.8 nM
COc1ccc(C#N)c(-c2cc3[nH]c(=O)n([C@H]4CCNC(=O)C4)c(=O)c3s2)c1 [Example 26, (S)-2-(2,4-dioxo-3-(2-oxopiperidin-4-yl)-1,2,3,4-tetrahydrothieno[3,2-d]pyrimidin-6-yl)-4-methoxybenzonitrile] | 61.7 nM
Cc1noc(C)c1-c1cc2[nH]c(=O)n([C@H]3CCNC(=O)C3)c(=O)c2s1 [Example 19, (S)-6-(3,5-dimethylisoxazol-4-yl)-3-(2-oxopiperidin-4-yl)thieno[3,2-d]pyrimidine-2,4(1H,3H)-dione] | 2420 nM
COc1ccc(Cl)c(-c2cc3[nH]c(=O)n(C4CCNC(=O)C4)c(=O)c3s2)c1 (stereo not drawn) [Example 7, 6-(2-chloro-5-methoxy-phenyl)-3-(2-oxo-4-piperidyl)-1H-thieno[3,2-d]pyrimidine-2,4-dione] | 13.4 nM
COc1cc(-c2cc3[nH]c(=O)n([C@H]4CCCNC(=O)C4)c(=O)c3s2)c(Cl)cc1F [Example 31, (S)-6-(2-chloro-4-fluoro-5-methoxyphenyl)-3-(2-oxoazepan-4-yl)thieno[3,2-d]pyrimidine-2,4(1H,3H)-dione] | 79.4 nM
O=C1C[C@@H](n2c(=O)[nH]c3cc(-c4ccccc4Cl)sc3c2=O)CCCN1 (single isomer, unassigned) [Example 22] | 69.9 nM
COc1cc(-c2cc3c(s2)c(=O)n([C@@H]2CCCNC(=O)C2)c(=O)n3CC(F)F)c(Cl)cc1F [Example 43, (R)-6-(2-chloro-4-fluoro-5-methoxyphenyl)-1-(2,2-difluoroethyl)-3-(2-oxoazepan-4-yl)thieno[3,2-d]pyrimidine-2,4(1H,3H)-dione] | 12.7 nM
O=C1C[C@H](n2c(=O)[nH]c3cc(-c4ccccc4Cl)ccc3c2=O)CCN1 [Example 6, (R)-7-(2-chlorophenyl)-3-(2-oxopiperidin-4-yl)quinazoline-2,4(1H,3H)-dione] | 30400 nM
COc1cc(-c2cc3c(s2)c(=O)n([C@@H]2CCCNC(=O)C2)c(=O)n3CCC#N)c(C#N)cc1F [Example 49, (R)-2-(1-(2-cyanoethyl)-2,4-dioxo-3-(2-oxoazepan-4-yl)-1,2,3,4-tetrahydrothieno[3,2-d]pyrimidin-6-yl)-5-fluoro-4-methoxybenzonitrile] | > 1000 nM
O=C1CC(n2c(=O)[nH]c3cc(-c4ccccc4Cl)ccc3c2=O)CCCN1 (stereo not drawn) [Example 9, 7-(2-chlorophenyl)-3-(2-oxoazepan-4-yl)quinazoline-2,4(1H,3H)-dione] | 736 nM
COc1cc(-c2cc3[nH]c(=O)n(C4CCCCNC(=O)C4)c(=O)c3s2)c(Cl)cc1F (stereo not drawn) [Example 58, 6-(2-chloro-4-fluoro-5-methoxyphenyl)-3-(2-oxoazocan-4-yl)thieno[3,2-d]pyrimidine-2,4(1H,3H)-dione] | 69 nM
COc1cc(-c2cc3[nH]c(=O)n([C@@H]4CCCNC(=O)C4)c(=O)c3s2)c(C)cc1F [Example 45, (R)-6-(4-fluoro-5-methoxy-2-methylphenyl)-3-(2-oxoazepan-4-yl)thieno[3,2-d]pyrimidine-2,4(1H,3H)-dione] | 16.1 nM
COc1ccc(Cl)c(-c2cc3c(s2)c(=O)n([C@@H]2CCCNC(=O)C2)c(=O)n3CCC#N)c1 [Example 29, (R)-3-(6-(2-chloro-5-methoxyphenyl)-2,4-dioxo-3-(2-oxoazepan-4-yl)-3,4-dihydrothieno[3,2-d]pyrimidin-1(2H)-yl)propanenitrile] | < 3.75 nM
COc1cc(-c2cc3[nH]c(=O)n(C4CC(=O)NCC(C)(C)C4)c(=O)c3s2)c(Cl)cc1F (stereo not drawn) [Example 55, 6-(2-chloro-4-fluoro-5-methoxyphenyl)-3-(6,6-dimethyl-2-oxoazepan-4-yl)thieno[3,2-d]pyrimidine-2,4(1H,3H)-dione] | 7.37 nM
COc1cnc(Cl)c(-c2cc3[nH]c(=O)n(C4CCNC(=O)C4)c(=O)c3s2)c1 (stereo not drawn) [Example 15, 6-(2-chloro-5-methoxypyridin-3-yl)-3-(2-oxopiperidin-4-yl)thieno[3,2-d]pyrimidine-2,4(1H,3H)-dione] | 356 nM
COc1cc(-c2cc3c(s2)c(=O)n([C@@H]2CCCNC(=O)C2)c(=O)n3CC2(C#N)CC2)c(Cl)cc1F [Example 36, (R)-1-((6-(2-chloro-4-fluoro-5-methoxyphenyl)-2,4-dioxo-3-(2-oxoazepan-4-yl)-3,4-dihydrothieno[3,2-d]pyrimidin-1(2H)-yl)methyl)cyclopropane-1-carbonitrile] | < 3.75 nM
COc1cc(-c2cc3[nH]c(=O)n([C@@H]4CC(=O)NC[C@@H](C)C4)c(=O)c3s2)c(Cl)cc1F (single isomer, unassigned) [Example 53] | 10.1 nM
COc1cc(-c2cc3c(s2)c(=O)n([C@@H]2CCCNC(=O)C2)c(=O)n3CC#N)c(Cl)cc1F [Example 34, (R)-2-(6-(2-chloro-4-fluoro-5-methoxyphenyl)-2,4-dioxo-3-(2-oxoazepan-4-yl)-3,4-dihydrothieno[3,2-d]pyrimidin-1(2H)-yl)acetonitrile] | < 3.75 nM
COc1cc(-c2cc3c(s2)c(=O)n([C@@H]2CCCNC(=O)C2)c(=O)n3C)c(Cl)cc1F [Example 32, (R)-6-(2-chloro-4-fluoro-5-methoxyphenyl)-1-methyl-3-(2-oxoazepan-4-yl)thieno[3,2-d]pyrimidine-2,4(1H,3H)-dione] | 5.56 nM
COc1cc(Cl)c(-c2cc3[nH]c(=O)n([C@H]4CCNC(=O)C4)c(=O)c3s2)cc1OC [Example 18, (S)-6-(2-chloro-4,5-dimethoxyphenyl)-3-(2-oxopiperidin-4-yl)thieno[3,2-d]pyrimidine-2,4(1H,3H)-dione] | 63.1 nM
COc1cc(-c2cc3c(s2)c(=O)n([C@@H]2CCCNC(=O)C2)c(=O)n3Cc2ncn(C)n2)c(Cl)cc1F [Example 41, (R)-6-(2-chloro-4-fluoro-5-methoxyphenyl)-1-((1-methyl-11H-1,2,4-triazol-3-yl)methyl)-3-(2-oxoazepan-4-yl)thieno[3,2-d]pyrimidine-2,4(1H,3H)-dione] | 80.5 nM
COc1cc(-c2cc3c(s2)c(=O)n([C@@H]2CCCNC(=O)C2)c(=O)n3CCN2CCCC2=O)c(Cl)cc1F [Example 39, (R)-6-(2-chloro-4-fluoro-5-methoxyphenyl)-3-(2-oxoazepan-4-yl)-1-(2-(2-oxopyrrolidin-1-yl)ethyl)thieno[3,2-d]pyrimidine-2,4(1H,3H)-dione] | 53.4 nM
COc1cc(-c2cc3c(s2)c(=O)n([C@@H]2CCCNC(=O)C2)c(=O)n3CCC#N)c(Cl)cc1F [Example 48, (R)-3-(6-(2-chloro-4-fluoro-5-methoxyphenyl)-2,4-dioxo-3-(2-oxoazepan-4-yl)-3,4-dihydrothieno[3,2-d]pyrimidin-1(2H)-yl)propanenitrile] | 4.02 nM
